# Laboratory results published in paper PMC12136788.
# Some of the results follow.
# T1: UNK ZnF1-3 (human, UniProt Q9C0B0 31-174)
# T1 sequence: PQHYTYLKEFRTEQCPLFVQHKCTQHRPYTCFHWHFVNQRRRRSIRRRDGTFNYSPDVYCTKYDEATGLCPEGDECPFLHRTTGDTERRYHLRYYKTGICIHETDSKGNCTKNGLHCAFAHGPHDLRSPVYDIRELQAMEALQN
# B1: chrX:71549400:71549401:+_ENSMUSG00000019087_ENSMUST00000019231|mus_hu|mus_mus_mus_hu_False|1_88 (ssRNA)
# RNA: GGGAGUUCUACAGUCCGACGAUCGCAGUAGGAAGAGGGAAGCUCUUCAUCCACUGUCGCUGCAGGGUGGGAAAGCAACAACACGGACACCGUCCCACCCUCAACCCCCCCACUGGCACAGGGUCACACAAUCUGGGAAGUGAUCAACAGAGGAUUGAGCAUCA
# B2: chr5:37680062:37680063:+_ENSMUSG00000029121_ENSMUST00000031004|mus_hu|mus_mus_mus_hu_False|18_28 (ssRNA)
# RNA: GGGAGUUCUACAGUCCGACGAUCUUUGGGUGUAGCUGGUACCUCGUACACAGGACCGUCAUACAUGCCCCUGGAAACCCCUUGCAAUCCAAAAACCUUAUUCCUGAUCCUGACACGCUGGUAGAGAUGCUCCGGGAACGCCUUCAACAGAGGAUUGAGCAUCA
# B3: chr18:24770415:24770416:+_ENSMUSG00000024271_ENSMUST00000025120|mus_mus|motif|central (ssRNA)
# RNA: GGGAGUUCUACAGUCCGACGAUCACAAACAGGUCCUUCAUGGCCUUGGAGACGGACUGAUUUUAAAACCUGAUUAUUCUCGGGUUCCCAAUGAAUCACCCGAUUGUCAGAUCCUCCAGACACCAGCUCAUUGGAAGGGGAGCCCAACAGAGGAUUGAGCAUCA
# B4: 141322406_141322605_2024_CDS_ENSMUSG00000040697_ENSMUST00000038014|mouse|control|control (ssRNA)
# RNA: GGGAGUUCUACAGUCCGACGAUCCUCUUUGGUGAAGCUCGGCUCAGUCUUCCCAGCCUUCUCGGGGACUUCCUCUUUGUCUGCAGGGUGCGACUCUCGCUCCUCAUUUGAGUCACUGAAAGCCUGGACCAUGACCGUGCCGAACAACAGAGGAUUGAGCAUCA
# B5: 151328270_151343212_477_3pUTR_ENSG00000115963_ENST00000263895|human|control|control (ssRNA)
# RNA: GGGAGUUCUACAGUCCGACGAUCUUCCACUUUUUGAGGACACUGUCCAGGGUCUCUGGUCUACUGAUGUCAAAGCAAAUCAGCACAGCAUCCGAAUCAGGGUAAGAGAGGGGGCGGACAUUGUCAUAGUAAGGAGAACCCGAACAACAGAGGAUUGAGCAUCA
# B6: chr8:11781157:11781158:+_ENSMUSG00000031511_ENSMUST00000110909|mus_hu|FALSE|FALSE (ssRNA)
# RNA: GGGAGUUCUACAGUCCGACGAUCUAAGGAACUGAGGACCUUGUUAAAAUUCUGCCCCUGAUACAAAUCAUUUGCAUCAAACGUCUCCAGCCGCAGGGAAGCCCCGCAGCCGCGCAGGAACUCGCGGAUGUUGCUCAGGCACUCCAACAGAGGAUUGAGCAUCA
# B7: chr1:66480114:66480115:+_ENSMUSG00000015222_ENSMUST00000024639|mus_mus|FALSE|FALSE (ssRNA)
# RNA: GGGAGUUCUACAGUCCGACGAUCUGGCCUGUGACGGAUGUUCUUUAGAGAGCCACAUUUGGAUGUCACAUGGCUUAAGUCUAUCUUCUUAGUAACAAUUUGUACCUGACCCCCCUUAGGCUGGUAUUUGAUGUUGUCAGUUGACAACAGAGGAUUGAGCAUCA
# B8: 75205495_75208088_1911_CDS_ENSG00000129657_ENST00000413679|human|control|control (ssRNA)
# RNA: GGGAGUUCUACAGUCCGACGAUCGCACACGUCGAAAUCCCAAGUGAUGACUGACGAGGCAUCCACAAUCUGAAUGAGAAUCUCAUGUGGGGCUCCUUUGAAGACGCUUGCAGACUGGUAGAUGGUCUCAGUCCAGAGCUUCAGCAACAGAGGAUUGAGCAUCA
# B9: chr14:90871081:90871082:+_ENSG00000198668_ENST00000553542|hu_mus|FALSE|FALSE (ssRNA)
# RNA: GGGAGUUCUACAGUCCGACGAUCUUCUUUUUUUUGUAAGAGGUAAGUAAAAGAUUUCAAUUUGAUUCUUCUAGAGGGGGAAAAGUAGUUGAAAGUAGGUCUUCAUUUUGCAGUCAUCAUCUGUACGAAUUCUUCAUAGUUGACCAACAGAGGAUUGAGCAUCA
# B10: chr1:115110812:115110813:-_ENSG00000116752_ENST00000369541|hu_mus|FALSE|FALSE (ssRNA)
# RNA: GGGAGUUCUACAGUCCGACGAUCGUCUUGGCGGAUGUUUUCCUUGUUGGCCUCCCCGUGCUGCUGCUUGAUCUGAUAGAUCUCGUUCUCCAGCUGGACAAUCGUCCGCUCAAUCUCAUAGUUCUUACUCACCAGCGACACCCACAACAGAGGAUUGAGCAUCA
# B11: chr11:71671816:71671817:+_ENSG00000137522_ENST00000530137|hu_mus|FALSE|FALSE (ssRNA)
# RNA: GGGAGUUCUACAGUCCGACGAUCGCAAUGAGGAUGAGGACCAUUUCAGCGUGCAUGGCUUCGUGGCCACGAUGUUUGGCAUGCAUUCGAGCAUGUUCGACCCUCCACUGCUCCUCUGGGGAGAGGUCUGACAUAUCAACCUCACAACAGAGGAUUGAGCAUCA
# B12: chr8:11181129:11181130:+_ENSG00000104643_ENST00000221086|hu_hu|motif|central (ssRNA)
# RNA: GGGAGUUCUACAGUCCGACGAUCCAGUGCAUCUCUGGUUUAAGAAAACCUAUUUGUAGCUUGAUUAUAAUAAAUUAACUCGGUUCGGGAUGAUGGUUUAAUUUUACAAGCAGCAUUUGAAACACAUUGUAUAUGUAUGCUCAACAACAGAGGAUUGAGCAUCA
# B13: chr12:39756943:39756944:-_ENSG00000139116_ENST00000544797|hu_mus|hu_hu_hu_mus_False|8_18 (ssRNA)
# RNA: GGGAGUUCUACAGUCCGACGAUCGGUUUGGCUGUUACCCCCAAGGGAAUCCUGCAAGAGUCUUGUCAGCUUAGAGUCUCUGUAAGGGACAUGGGUGGCUCUCUUGCUCUUGUCCCCCAAGGCACUUAUUACAUUGCCAAGAGCCAACAGAGGAUUGAGCAUCA
# B14: chr6:114281168:114281169:-_ENSG00000196591_ENST00000368632|hu_hu|hu_hu_hu_mus_True|1_98 (ssRNA)
# RNA: GGGAGUUCUACAGUCCGACGAUCUUCCAUUUUUCGGUAUAAGCCAUAAUUUAGCAGCAAGUUAUGAGUCAUCCGGAUUCUAUGAGGCUUCAUGGGAUGACCCUGGCCAUAAUAAUAAUUGCCAAUAUCACCAUCAUACUAGAACAACAGAGGAUUGAGCAUCA
# B15: 105421030_105421150_1886_CDS_ENSG00000114423_ENST00000394027|human|control|control (ssRNA)
# RNA: GGGAGUUCUACAGUCCGACGAUCACUCGCUGUGAUUCCAGGUUUUGGAGAGCCCUCCCCUAGGAGUCGACAUCCCACAAGCUGAUUAGUCCCAAACACAUCCCGAGGGCACCAUGCUUCAAGAGGCAUUGGCGGGUCUCUGGACAACAGAGGAUUGAGCAUCA
# B16: 38690349_38690469_566_CDS_ENSG00000109787_ENST00000261438|human|control|control (ssRNA)
# RNA: GGGAGUUCUACAGUCCGACGAUCGUAUUUUUUUAUCGGUGGGCUGGAAGAAGGCAUGCUCAACCCAGGCGAGGCUCUCCGGUGUGAGGACGGGAACUUCAGAGAGGAGGGCGAAUUCCCAGCCGAAGGGGGUGAACUCCGCUUCAACAGAGGAUUGAGCAUCA
# B17: chrX:20248820:20248821:+_ENSMUSG00000001924_ENSMUST00000001989|mus_mus|mus_mus_mus_hu_True|88_108 (ssRNA)
# RNA: GGGAGUUCUACAGUCCGACGAUCGGCAAAGUCAGUCACCACAAAGUCAGGCUCUACCAGUGAGGCCACCAAGGAUUUAAAGCUAAUCUUCUUAGGUACUUUGACCUGACUGACGAUGCCUCCACGGAUGUAGUCGGAGAAGUUCAACAGAGGAUUGAGCAUCA
# B18: 33856500_33856620_4295_3pUTR_ENSMUSG00000042197_ENSMUST00000044455|mouse|control|control (ssRNA)
# RNA: GGGAGUUCUACAGUCCGACGAUCGUUUCCAAAAGCACAUCUCCAAGCAUUAUUUAUUUUGUUUUGUUUUUAAACAACAAGAGUAUCUCAUAAAUCAUGUGAUAUGUAGCAUCUAAUUCAGGGCAAGAUGGAAAAGAACAAACGCAACAGAGGAUUGAGCAUCA
# B19: chr10:57206289:57206290:+_ENSMUSG00000019878_ENSMUST00000079833|mus_mus|FALSE|FALSE (ssRNA)
# RNA: GGGAGUUCUACAGUCCGACGAUCGCCGGCACGUUGGAACUCUGCUUCAUUGUUAGCCCGGUGCAGGGAUUCCAAAUUCUACUACCGAACGCGGAGGUCGCAGCGGCGGCGGCGGCGGCGGCGGCGGCAGCAGCGGCGGUGGCACAACAGAGGAUUGAGCAUCA
# B20: chr2:29169617:29169618:+_ENSG00000163811_ENST00000407426|hu_mus|FALSE|FALSE (ssRNA)
# RNA: GGGAGUUCUACAGUCCGACGAUCCGUGUGACUGGCUGGCUGCAUCUGUCUUCAUUCUUCUUCACUCUCGUUUUCAGGAUCUAAAUCCGAAUCUCCAUUUAAUUCUUUUUCACUUGACACUUCUCUGUCCUCCUCAUUCUCUUCCAACAGAGGAUUGAGCAUCA
# B21: chr12:55961440:55961441:-_ENSMUSG00000062929_ENSMUST00000078124|mus_mus|FALSE|FALSE (ssRNA)
# RNA: GGGAGUUCUACAGUCCGACGAUCCAUCAUGACUGAUAUUCAAAAUAUCUGUAGUGUUUCAAGACUCAUAUGGUAAACAUAAAUUAUACAGUAGUGUACACUCAUCGGGAAACCAAAGACAUUAGCACAGCUGUUUCUUUGAAACAACAGAGGAUUGAGCAUCA
# B22: chr14:76904430:76904431:+_ENSMUSG00000022010_ENSMUST00000022587|mus_mus|mus_mus_mus_hu_True|88_88 (ssRNA)
# RNA: GGGAGUUCUACAGUCCGACGAUCUGCAGCCAAAAACACCCUCGUGGCGGGAGGGAGGGAACACCAGCAGCCUUGUAUAAGCUAGAUAAAAUCUUCUGGCUUUCCGCAGCCCAGGGAGAAACAGAAAACGGCAGCCCUAAUUUACAACAGAGGAUUGAGCAUCA
# Target: T1, UNK ZnF1-3
# Test: nsRBNS (natural sequence RNA bind-n-seq); RBNS binding buffer (assumed for nsRBNS): 25 mM Tris pH 7.5, 150 mM KCl, 3 mM MgCl2, 0.01% Triton X-100, 500 ug/ml BSA, 20 U/ml SUPERase-In, 4 C; UNK is unkempt and MSI1 is Musashi-1; names of the RNAs are library labels; protein concentration not given here; high values mean tight binding
row,Binder,binding signal [enrichment R]
1,B1,0.829
2,B2,0.928
3,B3,1.17
4,B4,0.503
5,B5,1.43
6,B6,0.885
7,B7,0.553
8,B8,1.18
9,B9,1.26
10,B10,0.605
11,B11,1.12
12,B12,0.938
13,B13,0.595
14,B14,0.75
15,B15,0.891
16,B16,1.44
17,B17,0.925
18,B18,1.47
19,B19,0.728
20,B20,0.439
21,B21,0.9
22,B22,2.13
